Measurements as given in the domain aggregation screens of Martell et al. (2025).

Experiment: soluble fraction after stress (log2 fold change); higher = more stays soluble; pooled small domains, quantitative proteomics
Conditions: stress: 75 degC
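Further: 20 min heating vs room temperature control held 20 min.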

Row | Sequence | soluble fraction (log2)
1 | HMTEEDLIEAFKIFDKDGNGVISAQELRHVMTTLGERLTEEEADEMIREADIDGDGYINYHEFVRIMM | -0.228
2 | HMRRLQTVVFQKGLATTIRQARQLINHGHIFVDGHKVTVPGYLVLREEEGSVAYNPASPFTDENHPM | -2.16
